Results are given in words; binding and its absence hold for the method and conditions named. For some of these results: In cells and extracts the contact can be indirect. Some entries that bind do so weakly or less than the wild type. For some of these results: Where a sequence is shown, tags or fusion partners need not be part of it.
T1: I-Fabp (human) (UniProt P12104)
T1 sequence: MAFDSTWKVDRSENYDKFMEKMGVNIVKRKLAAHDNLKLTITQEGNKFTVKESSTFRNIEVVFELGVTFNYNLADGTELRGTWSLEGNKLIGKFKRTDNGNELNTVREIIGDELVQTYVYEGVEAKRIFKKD

The chains behind the UniProt entries cited, without tags or fusion partners.
UniProt P05413: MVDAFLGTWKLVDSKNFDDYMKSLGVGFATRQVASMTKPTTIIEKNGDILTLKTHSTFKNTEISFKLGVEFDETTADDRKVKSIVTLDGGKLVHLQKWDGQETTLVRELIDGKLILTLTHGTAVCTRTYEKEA
UniProt Q01469: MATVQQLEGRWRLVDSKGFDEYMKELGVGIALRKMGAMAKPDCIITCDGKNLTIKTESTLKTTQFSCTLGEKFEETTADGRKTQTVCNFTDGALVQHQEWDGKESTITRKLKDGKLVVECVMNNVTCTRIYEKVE
UniProt Q9DBL9: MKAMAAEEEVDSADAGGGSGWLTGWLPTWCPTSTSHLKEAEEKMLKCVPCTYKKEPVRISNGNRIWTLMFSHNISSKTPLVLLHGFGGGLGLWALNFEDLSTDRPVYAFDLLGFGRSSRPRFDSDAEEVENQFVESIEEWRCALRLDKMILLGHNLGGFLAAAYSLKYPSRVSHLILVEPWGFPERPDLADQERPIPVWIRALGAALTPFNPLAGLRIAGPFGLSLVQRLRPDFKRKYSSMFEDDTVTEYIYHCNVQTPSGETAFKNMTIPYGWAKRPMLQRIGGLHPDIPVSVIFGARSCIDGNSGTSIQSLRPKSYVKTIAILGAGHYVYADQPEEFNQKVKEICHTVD

T2: L-Fabp (human) (UniProt P07148)
T2 sequence: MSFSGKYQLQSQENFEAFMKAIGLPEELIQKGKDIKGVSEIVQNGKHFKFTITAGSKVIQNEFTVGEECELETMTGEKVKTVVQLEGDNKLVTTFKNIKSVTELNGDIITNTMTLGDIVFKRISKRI


Assays:
I-Fabp (human) = molecular target: T1, I-Fabp (human); assay: ELISA; solid phase assay: 96-well polystyrene plates coated overnight with 3 μg of purified Fabp, blocked with 5% delipidated BSA in TBS (50 mM Tris, pH 8.0, 150 mM NaCl); COS-7 cell extracts (10–60 μg of total protein) with His-tagged proteins, 2% BSA, 0.05% Tween 20, overnight; anti-His primary and Hrp-conjugated secondary antibody, absorbance 450/620 nm; only the target purified
L-Fabp (human) = molecular target: T2, L-Fabp (human); assay: as above
H-Fabp (human) = H-Fabp (human) (UniProt P05413); assay: as above
E-Fabp (human) = E-Fabp (human) (UniProt Q01469); assay: as above
[1] = molecular target: Strep-tagged A-Fabp (human) (UniProt P15090); assay: as above
[2] = molecular target: Cgi-58 (endogenous, murine WAT) (mouse (endogenous in gonadal WAT)) (UniProt Q9DBL9); assay: co-IP; endogenous proteins in gonadal WAT lysate of an overnight fasted C57BL/6 mouse (700 μg of total protein; 50 mM Tris, pH 7.4, 150 mM NaCl, 1% Nonidet P-40, 1 mM EDTA); monoclonal antibodies against A-Fabp, Cgi-58 or Gfp (control), protein A/G-Sepharose, Western blotting

Binder | binding [1] | also measured
Fatty acid-binding protein, adipocyte (protein, UniProt P04117 1-132) MCDAFVGTWKLVSSENFDDYMKEVGVGFATRKVAGMAKPNMIISVNGDLVTIRSESTFKNTEISFKLGVEFDEITADDRKVKSIITLDGGALVQVQKWDGKSTTIKRKRDGDKLVVECVMKGVTSTRVYERA |  | binding [2]: binds
Cgi-58^190TER (domain or fragment, UniProt Q8WTS1 1-189) MAAEEEEVDSADTGERSGWLTGWLPTWCPTSISHLKEAEEKMLKCVPCTYKKEPVRISNGNKIWTLKFSHNISNKTPLVLLHGFGGGLGLWALNFGDLCTNRPVYAFDLLGFGRSSRPRFDSDAEEVENQFVESIEEWRCALGLDKMILLGHNLGGFLAAAYSLKYPSRVNHLILVEPWGFPERPDLAD | binds weakly | 
Cgi-58^E7K (protein, UniProt Q8WTS1 1-349) MAAEEEKVDSADTGERSGWLTGWLPTWCPTSISHLKEAEEKMLKCVPCTYKKEPVRISNGNKIWTLKFSHNISNKTPLVLLHGFGGGLGLWALNFGDLCTNRPVYAFDLLGFGRSSRPRFDSDAEEVENQFVESIEEWRCALGLDKMILLGHNLGGFLAAAYSLKYPSRVNHLILVEPWGFPERPDLADQDRPIPVWIRALGAALTPFNPLAGLRIAGPFGLSLVQRLRPDFKRKYSSMFEDDTVTEYIYHCNVQTPSGETAFKNMTIPYGWAKRPMLQRIGKMHPDIPVSVIFGARSCIDGNSGTSIQSLRPHSYVKTIAILGAGHYVYADQPEEFNQKVKEICDTVD | binds | 
His-tagged murine Atgl (enzyme, UniProt Q8BJ56 1-486) MFPRETKWNISFAGCGFLGVYHIGVASCLREHAPFLVANATHIYGASAGALTATALVTGACLGEAGANIIEVSKEARKRFLGPLHPSFNLVKTIRGCLLKTLPADCHERANGRLGISLTRVSDGENVIISHFSSKDELIQANVCSTFIPVYCGLIPPTLQGVRYVDGGISDNLPLYELKNTITVSPFSGESDICPQDSSTNIHELRVTNTSIQFNLRNLYRLSKALFPPEPMVLREMCKQGYRDGLRFLRRNGLLNQPNPLLALPPVVPQEEDAEEAAVVEERAGEEDQLQPYRKDRILEHLPARLNEALLEACVEPKDLMTTLSNMLPVRLATAMMVPYTLPLESAVSFTIRLLEWLPDVPEDIRWMKEQTGSICQYLVMRAKRKLGDHLPSRLSEQVELRRAQSLPSVPLSCATYSEALPNWVRNNLSLGDALAKWEECQRQLLLGLFCTNVAFPPDALRMRAPASPTAADPATPQDPPGLPPC | no binding (tested: cell extracts, 10–60 μg of total protein) | 

Now from value to binder, other results behind:

binding [1] | Binder | also measured
binds | His-tagged human Cgi-58 (protein, UniProt Q8WTS1 1-349) MAAEEEEVDSADTGERSGWLTGWLPTWCPTSISHLKEAEEKMLKCVPCTYKKEPVRISNGNKIWTLKFSHNISNKTPLVLLHGFGGGLGLWALNFGDLCTNRPVYAFDLLGFGRSSRPRFDSDAEEVENQFVESIEEWRCALGLDKMILLGHNLGGFLAAAYSLKYPSRVNHLILVEPWGFPERPDLADQDRPIPVWIRALGAALTPFNPLAGLRIAGPFGLSLVQRLRPDFKRKYSSMFEDDTVTEYIYHCNVQTPSGETAFKNMTIPYGWAKRPMLQRIGKMHPDIPVSVIFGARSCIDGNSGTSIQSLRPHSYVKTIAILGAGHYVYADQPEEFNQKVKEICDTVD | binding (I-Fabp (human)): binds; binding (L-Fabp (human)): binds; binding (H-Fabp (human)): binds; binding (E-Fabp (human)): binds
binds | His-tagged murine Hsl (enzyme, UniProt P54310 1-759) MDLRTMTQSLVTLAEDNMAFFSSQGPGETARRLSNVFAGVREQALGLEPTLGQLLGVAHHFDLDTETPANGYRSLVHTARCCLAHLLHKSRYVASNRKSIFFRASHNLAELEAYLAALTQLRAMAYYAQRLLTINRPGVLFFEGDEGLTADFLQEYVTLHKGCFYGRCLGFQFTPAIRPFLQTLSIGLVSFGEHYKRNETGLSVTASSLFTGGRFAIDPELRGAEFERIIQNLDVHFWKAFWNITEIEVLSSLANMASTTVRVSRLLSLPPEAFEMPLTSDPRLTVTISPPLAHTGPAPVLARLISYDLREGQDSKVLNSLAKSEGPRLELRPRPHQAPRSRALVVHIHGGGFVAQTSKSHEPYLKNWAQELGVPIFSIDYSLAPEAPFPRALEECFFAYCWAVKHCDLLGSTGERICLAGDSAGGNLCITVSLRAAAYGVRVPDGIMAAYPVTTLQSSASPSRLLSLMDPLLPLSVLSKCVSAYSGTEAEDHFDSDQKALGVMGLVQRDTSLFLRDLRLGASSWLNSFLELSGRKPQKTTSPTAESVRPTESMRRSVSEAALAQPEGLLGTDTLKKLTIKDLSNSEPSDSPEMSQSMETLGPSTPSDVNFFLRPGNSQEEAEAKDEVRPMDGVPRVRAAFPEGFHPRRSSQGVLHMPLYTSPIVKNPFMSPLLAPDSMLKTLPPVHLVACALDPMLDDSVMFARRLRDLGQPVTLKVVEDLPHGFLSLAALCRETRQATEFCVQRIRLILTPPAAPLN | 

Source: paper PMC4513104
